This is one part of the list. Values were computed here from the reads of four pooled replicates and scatter widely.
The sequences below were run against T1, Pho4 (S. cerevisiae) (UniProt P07270) (assay: relative binding free energy (BET-seq); higher = weaker binding). Conditions: reference: library average.
T1 sequence: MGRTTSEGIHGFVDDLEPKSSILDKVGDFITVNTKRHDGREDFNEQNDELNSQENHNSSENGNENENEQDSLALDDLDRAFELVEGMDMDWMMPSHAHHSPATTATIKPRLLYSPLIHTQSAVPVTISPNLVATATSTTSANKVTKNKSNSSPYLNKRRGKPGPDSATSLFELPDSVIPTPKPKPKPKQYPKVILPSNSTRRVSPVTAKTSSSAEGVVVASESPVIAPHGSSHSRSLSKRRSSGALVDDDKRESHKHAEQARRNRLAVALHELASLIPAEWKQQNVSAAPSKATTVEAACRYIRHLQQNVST

Row | Sequence | relative binding free energy [kcal/mol]
1 | TGAAACACGTGAGTTG | 0.07
2 | CGTTGCACGTGATTTT | 0.22
3 | CTAAGCACGTGTAGGT | -0.2
4 | ATCCTCACGTGGTGTG | 0.08
5 | AATGGCACGTGGATGT | -0.12
6 | AATGTCACGTGGAAGG | 0.08
7 | GGGAACACGTGACGTT | 0.24
8 | TGTATCACGTGGAGCA | 0.04
9 | AGTTTCACGTGTTGTT | 0.29
10 | TGTAGCACGTGAGTAG | 0.17
11 | CGGTACACGTGTAGTG | 0.04
12 | GGATACACGTGGGGAG | -0.01
13 | TTGTGCACGTGTGAAT | 0.09
14 | TGTTGCACGTGGTCGG | -0.08
15 | CTGGTCACGTGAAGTG | 0.2
16 | TACGTCACGTGGTTTA | 0.02
17 | AGTGACACGTGGGGCT | -0.22
18 | CGTTTCACGTGAGGTC | 0.27
19 | TTATTCACGTGTTTAA | 0.11
20 | GTTTTCACGTGAGTGC | 0.44
21 | GGGATCACGTGTGGGG | 0.27
22 | GTGTTCACGTGGACTG | 0.21
23 | TGGATCACGTGTACGT | 0.1

Row | Sequence | relative binding free energy [kcal/mol]
24 | GAGACCACGTGGGGTT | -0.15
25 | TTCGACACGTGGCGTT | 0.04
26 | TGGACCACGTGTGGCG | 0.02
27 | CTTGGCACGTGGTTGT | -0.15
28 | TGGTCCACGTGTGGTC | 0.16
29 | GGGGACACGTGGTGGG | 0.06
30 | CTCTGCACGTGGGGGC | -0.11
31 | TCAGGCACGTGTGGAG | 0.04
32 | GTTGGCACGTGAATAT | 0.12
33 | TGGCTCACGTGAGAGT | 0.33
34 | CTTATCACGTGGGCTG | -0.01
35 | CTGCGCACGTGGGGAA | -0.13
36 | AGGGTCACGTGGCTAT | 0.01
37 | TCAATCACGTGGGGTA | 0
38 | CGAGACACGTGTGGGT | 0.15
39 | CTTGGCACGTGATTGT | -0.13
40 | AGGTTCACGTGTACGA | 0.33
41 | GGCCTCACGTGTGGGT | 0.16
42 | ATATTCACGTGATATG | 0.3
43 | GATTACACGTGGTGGC | 0.1
44 | ATGGACACGTGGATTT | -0.05
45 | CAGGTCACGTGTAGGC | 0.24
46 | AGTTACACGTGAATGT | 0.1

Row | Sequence | relative binding free energy [kcal/mol]
47 | GTGTTCACGTGAGACA | 0.44
48 | TTTTGCACGTGGTATC | 0
49 | GTGGGCACGTGTCGAG | -0.04
50 | GAGCTCACGTGTGTTT | 0.3
51 | TCTTTCACGTGTATTT | 0.12
52 | TTGTCCACGTGGCTGT | -0.03
53 | CGTGGCACGTGTTAGA | -0.02
54 | GTTGACACGTGGGTCT | -0.07
55 | TGGGCCACGTGCGGTG | -0.18
56 | AGGGGCACGTGGGTTA | -0.23
57 | GATTTCACGTGTTTTG | 0.39
58 | GGACGCACGTGGCGTA | -0.05
59 | GTTATCACGTGTCAAG | 0.31
60 | GGTATCACGTGAACTG | 0.41
61 | AGTCTCACGTGGGGTA | 0.15
62 | CTAGGCACGTGTTAGG | -0.11
63 | TTGGGCACGTGTTAAT | -0.06
64 | AGGGTCACGTGGGGAA | 0.08
65 | ATGTGCACGTGGTAAG | -0.06
66 | GGGATCACGTGGGCTA | 0.02
67 | ATGATCACGTGGTGAG | 0.08
68 | ATTTTCACGTGGACAG | 0.23
69 | GTTTGCACGTGCTGCG | 0.04

Row | Sequence | relative binding free energy [kcal/mol]
70 | AGTGTCACGTGACTGT | 0.25
71 | GTGTGCACGTGATAAT | 0.22
72 | GTGTACACGTGTTAGG | 0.13
73 | AGGGTCACGTGTCGAT | 0.04
74 | TGGGTCACGTGGCGTC | 0.04
75 | CGAGTCACGTGGGTGC | -0.04
76 | AAGATCACGTGGTGAT | 0.16
77 | TTTATCACGTGCTGTG | 0.05
78 | TTGGTCACGTGTGGCC | 0.19
79 | ATGGGCACGTGGCCTT | -0.16
80 | TGTGACACGTGGACAT | -0.03
81 | ATGTGCACGTGTTCAT | -0.11
82 | AGTAGCACGTGCTGTG | -0.18
83 | GCTAGCACGTGTAGGG | -0.02
84 | TGATACACGTGTGTCT | 0.19
85 | TGTGGCACGTGTTGCG | -0.09
86 | TGGTTCACGTGTTAGG | 0.32
87 | GTATACACGTGTCGTT | -0.05
88 | TTATACACGTGGGGGA | -0.17
89 | TGCGGCACGTGGAGGC | -0.06
90 | ACGCGCACGTGGTGTT | -0.2
91 | TAGGTCACGTGAGGAG | 0.31
92 | TGTTGCACGTGAAATT | 0.2

Row | Sequence | relative binding free energy [kcal/mol]
93 | TCTTTCACGTGAAAGG | 0.42
94 | TGTGCCACGTGCGTTA | -0.21
95 | GAGGCCACGTGAGGTG | 0.18
96 | TGGTGCACGTGCGGGG | -0.12
97 | TGCGTCACGTGTTTTT | 0.14
98 | CTTAACACGTGTGTAT | -0.06
99 | TCTGTCACGTGTAGTC | 0.17
100 | AACTTCACGTGTGTTT | 0.33
101 | GTGTGCACGTGGCGAA | -0.11
102 | GTTCTCACGTGGCTTT | 0.19
103 | TGACGCACGTGGGTTT | -0.21
104 | ATTGGCACGTGGTGTC | -0.15
105 | GTGGTCACGTGATACG | 0.14
106 | AATTGCACGTGTATTG | -0.02
107 | ACGTCCACGTGGGGGG | -0.12
108 | TCGAGCACGTGGTTGA | -0.01
109 | TGGGGCACGTGTACTA | -0.05
110 | TTGGTCACGTGTGATT | 0.28
111 | TTGGGCACGTGACAGC | 0.02
112 | TTGAACACGTGGGAGC | 0.1
113 | TGCATCACGTGATGTA | 0.38
114 | CGAGACACGTGGGGGT | -0.23
115 | TGGGACACGTGGGAAA | 0.04

From the BET-seq Pho4 binding data (Le et al. 2018)
